According to PubChem BioAssay (Tox21):
Where “and” joins values, the source holds several entries; their conditions need not be identical. Identical values can stand only once. Inconclusive results, whose numbers are uncertain, are shown with a selection of clear calls. For part of these data: Potencies of inconclusive entries are doubtful fits and often do not repeat. Calls of active or inactive are those of the source. Unless noted, calls follow the shape of the dose curve; as a rule, active = well fitted curve in the direction sought with a large enough effect in the repeat runs; inconclusive = weak or mixed curves; inactive = no such curve, though single readings can be large; an effect the other way counts as inactive or inconclusive.

How the values were obtained:
[1] = qHTS assay for small molecule agonists of the p53 signaling pathway (AID 651631; calls by dose curve; also: nearly all actives have a fitted effect of over 15% in size; also: potency is read from the fitted curve at half-maximal effect); conditions: HCT-116 p53RE-bla reporter, beta-lactamase FRET ratio, 16 h; activation: at 73.3 µM (top of the series) unless noted
Outline: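 Readout was fluorescence from the LiveBLAzer FRET substrate, applied for 2 h at room temperature after 16 h compound exposure at 37 °C. Cells were the p53RE-bla HCT-116 line, with beta-lactamase driven by p53 response elements.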

[2] = target: Glucocorticoid receptor (Homo sapiens) (UniProt P04150); experiment: qHTS assay to identify small molecule antagonists of the glucocorticoid receptor (GR) signaling pathway (AID 720692; active = well fitted inhibition curve with a large enough effect in the signal ratio in the repeat runs, not every such curve was filed as active; inconclusive = weak or mixed curves, or effect the other way; inactive = no such curve, though single readings can be large or run the other way; the % refers to the signal ratio; also: % is scaled to controls: 0 for no effect and ±100 for the full control effect); conditions: GR-bla HeLa, beta-lactamase FRET ratio, dexamethasone-stimulated, 18 h
Sequence of UniProt P04150 (P04150 whole entry, looked up): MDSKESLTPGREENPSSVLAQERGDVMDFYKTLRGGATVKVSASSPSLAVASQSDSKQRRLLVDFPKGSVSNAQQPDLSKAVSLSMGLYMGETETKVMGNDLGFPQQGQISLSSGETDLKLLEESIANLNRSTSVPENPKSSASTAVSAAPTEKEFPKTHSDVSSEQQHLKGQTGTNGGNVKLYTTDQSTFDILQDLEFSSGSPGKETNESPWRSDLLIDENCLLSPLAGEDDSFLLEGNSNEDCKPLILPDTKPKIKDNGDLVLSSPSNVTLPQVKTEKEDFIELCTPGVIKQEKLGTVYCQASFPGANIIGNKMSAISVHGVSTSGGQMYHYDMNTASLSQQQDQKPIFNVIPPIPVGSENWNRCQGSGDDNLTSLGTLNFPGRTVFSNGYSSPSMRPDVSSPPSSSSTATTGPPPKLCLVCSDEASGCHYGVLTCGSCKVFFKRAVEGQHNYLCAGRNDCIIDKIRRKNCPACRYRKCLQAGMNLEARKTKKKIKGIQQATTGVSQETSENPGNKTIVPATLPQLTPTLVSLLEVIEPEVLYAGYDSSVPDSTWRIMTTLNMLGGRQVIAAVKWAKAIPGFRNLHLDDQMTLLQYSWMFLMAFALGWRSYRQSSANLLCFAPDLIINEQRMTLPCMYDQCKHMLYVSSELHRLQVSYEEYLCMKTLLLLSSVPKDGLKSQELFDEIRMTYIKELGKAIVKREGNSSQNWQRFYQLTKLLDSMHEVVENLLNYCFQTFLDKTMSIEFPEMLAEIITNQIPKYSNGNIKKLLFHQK
Outline: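 Read-out: beta-lactamase FRET substrate fluorescence, 2 h at room temperature, in HeLa cells stably carrying a GRE-driven bla reporter. Compounds were co-incubated with 5 nM dexamethasone agonist (final) for 18 h at 37 C.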

[3] = qHTS assay for identifying genotoxic compounds that show differential cytotoxicity against isogenic chicken DT40 cell lines with known DNA damage response pathways - wild type cell line (AID 743012); conditions: DT40 wild type chicken cells viability, CellTiter-Glo, 40 h; activity change, negative = cytotoxicity: at 68.4 µM (top of the series) unless noted; also: nearly all actives have a fitted effect of over 60% in size; also: potency is read from the fitted curve at half-maximal effect
Outline: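 CellTiter-Glo luminescence readout of viability in wild type DT40 cells after 40 h compound exposure at 37 C/5% CO2; 300 cells/well; reagent incubated 30 min at room temperature before reading.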

[4] = qHTS assay for identifying genotoxic compounds that show differential cytotoxicity against isogenic chicken DT40 cell lines with known DNA damage response pathways - Rev3 mutant cell line (AID 743014); conditions: chicken DT40 Rev3-/- viability, CellTiter-Glo, 40 h; activity, negative = cytotoxicity: at 68.4 µM (top of the series) unless noted; also: nearly all actives have a fitted effect of over 55% in size; also: potency is read from the fitted curve at half-maximal effect
[5] = qHTS assay to identify small molecule antagonists of the thyroid receptor (TR) signaling pathway - cell viability counter screen (AID 743064); conditions: GH3.TRE-Luc viability, CellTiter-Fluor, 24 h; activity change, negative = cytotoxic: at 70.3 µM (top of the series) unless noted; also: % is scaled to controls: 0 for no effect and ±100 for the full control effect; nearly all actives have a fitted effect of over 50% in size
Outline: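 In-well cytotoxicity read by CellTiter-Fluor (30 min, 37 C) following 23.5 h exposure of GH3 cells bearing a TRE-luciferase sensor. Compounds were added alongside 1 nM (final) T3 to drive TR transactivation.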

[6] = test system: thyroid hormone receptor (rat, GH3 cells); experiment: qHTS assay to identify small molecule agonists of the thyroid receptor (TR) signaling pathway (AID 743066; calls by dose curve; also: % is scaled to controls: 0 for no effect and ±100 for the full control effect); conditions: GH3.TRE-Luc cells, TR agonist luciferase, 24 h; activation: at 83.9 µM (top of the series) unless noted
[7] = target: Estrogen receptor (Homo sapiens) (UniProt P03372); experiment: qHTS assay to identify small molecule agonists of the estrogen receptor alpha (ER-alpha) signaling pathway using the BG1 cell line (AID 743079); conditions: BG1Luc4E2 cells, ERE-luciferase agonist, 22 h; activation: at 70.3 µM (top of the series) unless noted; also: nearly all actives have a fitted effect of over 20% in size; also: potency is read from the fitted curve at half-maximal effect; as to activation: % is scaled to controls: 0 for no effect and ±100 for the full control effect
Sequence of UniProt P03372 (P03372 whole entry, looked up): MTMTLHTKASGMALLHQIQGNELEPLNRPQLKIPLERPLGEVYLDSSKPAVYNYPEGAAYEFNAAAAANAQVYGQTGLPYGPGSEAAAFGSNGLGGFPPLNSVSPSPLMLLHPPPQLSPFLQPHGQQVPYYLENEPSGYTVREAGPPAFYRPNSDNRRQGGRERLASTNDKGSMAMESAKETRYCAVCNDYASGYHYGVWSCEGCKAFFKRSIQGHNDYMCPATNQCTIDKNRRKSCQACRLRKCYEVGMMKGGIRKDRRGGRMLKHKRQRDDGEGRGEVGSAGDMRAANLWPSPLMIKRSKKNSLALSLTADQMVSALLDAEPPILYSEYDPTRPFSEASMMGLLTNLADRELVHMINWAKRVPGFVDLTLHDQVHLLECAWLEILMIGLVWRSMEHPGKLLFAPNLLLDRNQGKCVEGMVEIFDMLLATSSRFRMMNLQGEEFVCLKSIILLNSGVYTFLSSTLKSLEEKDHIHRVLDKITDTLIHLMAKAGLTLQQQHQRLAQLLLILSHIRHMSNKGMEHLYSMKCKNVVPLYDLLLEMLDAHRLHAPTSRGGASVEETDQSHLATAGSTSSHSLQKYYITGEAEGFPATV

[8] = target: Estrogen receptor (Homo sapiens) (UniProt P03372); experiment: qHTS assay to identify small molecule antagonists of the estrogen receptor alpha (ER-alpha) signaling pathway (AID 743069; active = well fitted curve in the direction sought with a large enough effect in the signal ratio in the repeat runs, not every such curve was filed as active; inconclusive = weak or mixed curves, or effect the other way; inactive = no such curve, though single readings can be large or run the other way; the % refers to the signal ratio; also: % is scaled to controls: 0 for no effect and ±100 for the full control effect); conditions: HEK293 ER-alpha-UAS-bla, beta-lactamase ratio, antagonist mode; activity, negative = inhibition: at 69.4 µM (top of the series) unless noted
Outline: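 Antagonist mode: compounds in DMSO were co-added with 17beta-estradiol to ER-alpha-bla HEK293 cells (2% charcoal-stripped serum) and left 18 h at 37C. Reporter inhibition was measured as FRET fluorescence after 2 h LiveBLAzer substrate at room temperature.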

[9] = qHTS assay to identify small molecule antagonists of the estrogen receptor alpha (ER-alpha) signaling pathway using the BG1 cell line (AID 743080; calls by dose curve;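 also: BG1 cells stimulated with 17beta-estradiol alongside compound; % is scaled to controls: 0 for no effect and ±100 for the full control effect; nearly all actives have a fitted effect of over 25% in size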); conditions: BG1Luc4E2 ERE-luciferase antagonist mode, luminescence; activity change, negative = inhibition: at 70.3 µM (top of the series) unless noted
Outline: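 Readout is ONE-Glo luminescence, taken 30 min at room temperature after reagent addition, preceded by a CellTiter-Fluor viability read; BG1-Luc-4E2 cells had received compound and 17beta-estradiol for 21.5 h at 37 C.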

[10] = qHTS assay to identify small molecule phospholipidosis (PLD) inducers (AID 1259344; active = well fitted curve in the direction sought with a large enough effect; inconclusive = small, poorly fitted or top-dose-only effect, or another doubt; inactive = no such curve, though single readings can be large; an effect the other way counts as inactive or inconclusive; also: potency is read from the fitted curve at half-maximal effect); conditions: HepG2 phospholipidosis, LipidTOX Red imaging, 24 h; PLD induction: at 38.3 µM (top of the series) unless noted
Outline: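 Phospholipid accumulation was scored by imaging: fixed, Hoechst-counterstained HepG2 cells stained with LipidTOX Red after 24 h compound exposure at 37 C. Read-outs were pit count and pit intensity per well or per cell, with amiodarone and DMSO controls.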

[11] = qHTS assay for small molecule disruptors of the mitochondrial membrane potential (AID 720635); conditions: HepG2 mitochondrial membrane potential, Mito-MPS dye ratio; ratio activity, negative = MMP loss: at 83.2 µM (top of the series) unless noted; also: potency is read from the fitted curve at half-maximal effect
Outline: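 Mitochondrial membrane potential tracked with Mito-MPS dye, red aggregates (ex 540/em 590 nm) against green monomers (ex 490/em 535 nm). Compound treatment 1 hr at 37C, dye 30 min in HepG2.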

[12] = qHTS assay for identifying genotoxic compounds that show differential cytotoxicity against isogenic chicken DT40 cell lines with known DNA damage response pathways - Rad54/Ku70 mutant cell line (AID 743015); conditions: DT40 Rad54/Ku70 mutant viability, CellTiter-Glo, 40 h; activity change, negative = cytotoxicity: at 66.8 µM (top of the series) unless noted; also: nearly all actives have a fitted effect of over 60% in size; also: potency is read from the fitted curve at half-maximal effect
[13] = qHTS assay to identify small molecule antagonists of the estrogen receptor alpha (ER-alpha) signaling pathway - cell viability counter screen (AID 743074; calls by dose curve;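 also: HEK293 cells carrying ER-alpha-UAS-bla reporter stimulated with 17beta-estradiol; nearly all actives have a fitted effect of over 45% in size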; also: potency is read from the fitted curve at half-maximal effect)
[14] = qHTS assay to identify small molecule antagonists of the androgen receptor (AR) signaling pathway - cell viability counter screen (AID 743033; also: nearly all actives have a fitted effect of over 45% in size; also: potency is read from the fitted curve at half-maximal effect); conditions: AR-bla HEK293 viability, CellTiter-Glo luminescence, 16 h; activity change, negative = cytotoxicity: at 58.5 µM (top of the series) unless noted
[15] = target: Peroxisome proliferator-activated receptor gamma (Homo sapiens) (UniProt P37231); experiment: qHTS assay to identify small molecule agonists of the peroxisome proliferator-activated receptor gamma (PPARg) signaling pathway (AID 743094; active = well fitted activation curve with a large enough effect in the signal ratio in the repeat runs, not every such curve was filed as active; inconclusive = weak or mixed curves, or effect the other way; inactive = no such curve, though single readings can be large or run the other way; the % refers to the signal ratio; also: potency is read from the fitted curve at half-maximal effect); conditions: HEK293H PPARg-UAS-bla, beta-lactamase FRET ratio, 17 h; activation: at 57 µM (top of the series) unless noted
Sequence of UniProt P37231 (P37231 whole entry, looked up): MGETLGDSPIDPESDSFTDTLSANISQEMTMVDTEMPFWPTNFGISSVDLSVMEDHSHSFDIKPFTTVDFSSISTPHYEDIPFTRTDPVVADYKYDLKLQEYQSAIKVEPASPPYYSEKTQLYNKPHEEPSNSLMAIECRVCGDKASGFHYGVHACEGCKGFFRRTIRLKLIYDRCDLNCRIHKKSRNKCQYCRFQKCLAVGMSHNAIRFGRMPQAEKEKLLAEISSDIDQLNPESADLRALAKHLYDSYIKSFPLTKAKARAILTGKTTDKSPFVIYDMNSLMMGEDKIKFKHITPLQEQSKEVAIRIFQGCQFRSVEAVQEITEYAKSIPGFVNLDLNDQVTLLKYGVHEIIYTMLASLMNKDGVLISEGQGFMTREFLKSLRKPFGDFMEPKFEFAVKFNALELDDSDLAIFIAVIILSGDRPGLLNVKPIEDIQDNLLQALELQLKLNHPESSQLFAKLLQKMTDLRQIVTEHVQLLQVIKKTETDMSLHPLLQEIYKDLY
Outline: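 HEK293H PPARg-bla cells, 5 h settle at 37C/5% CO2; compound (DMSO) 17 h, 37C; B/G FRET substrate 1 h RT; fluorescence intensity read-out. qHTS format.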

[16] = qHTS assay to identify small molecule antagonists of the estrogen receptor alpha (ER-alpha) signaling pathway using the BG1 cell line - cell viability counter screen (AID 743081); conditions: BG1Luc4E2 viability, CellTiter-Fluor, 22 h; activity change, negative = cytotoxicity: at 70.3 µM (top of the series) unless noted;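 also: compound given together with 17beta-estradiol as the ER stimulus; potency is read from the fitted curve at half-maximal effect; nearly all actives have a fitted effect of over 45% in size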
[17] = qHTS assay to identify small molecule antagonists of the thyroid receptor (TR) signaling pathway (AID 743065); also: % is scaled to controls: 0 for no effect and ±100 for the full control effect; nearly all actives have a fitted effect of over 55% in size
Outline: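 Antagonism measured as loss of luciferase signal in GH3 cells stably carrying a TRE-luciferase reporter, co-treated with compound and T3 (1 nM final) for 23.5 h at 37 C. Viability was read in the same well by CellTiter-Fluor.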

[18] = activity change, negative = inhibition: at 58.5 µM (top of the series) unless noted
Tags tell the direction and shape of the fitted curve or compound fluorescence and quenching.

With `CC(C)NCC(O)COc1ccc(COCCOC(C)C)cc1` (centres undefined) the Potency [1] was inconclusive: 1.19 µM [falling, single point], the activity change, negative = inhibition [2, 18] was inconclusive: -15.6% and the activity change, negative = inhibition ([2]; at 58.5 µM (top of the series)) was inactive: -1.21%. The Potency [3] was inconclusive: 21.1 µM [cytotoxic, partial curve], the Potency [4] was inconclusive: 21.1 µM [cytotoxic, partial curve] and the activity change, negative = cytotoxic [5] was inconclusive: -0.701%. The Potency [6] was “inactive” and the Potency [7] was “inactive”.
For `C[C@@H]1C[C@H]2[C@@H]3C[C@H](F)C4=CC(=O)C=C[C@]4(C)[C@@]3(Cl)[C@@H](O)C[C@]2(C)[C@H]1C(=O)COC(=O)C(C)(C)C`, the Potency [4] was inconclusive: 0.531 µM [cytotoxic, full curve], the Potency [6] was “inactive” and the activity, negative = inhibition [8] was inconclusive: 22%. For the same molecule, the activity change, negative = inhibition [9] was inconclusive: 16.4% and the Potency [10] was “inactive”.
For `CC(=O)OC1C2(C)CCC(C2)C1(C)C` (centres undefined), the Potency [11] was “inactive”, the activity change, negative = inhibition [2, 18] was inconclusive: 9.17% and the Potency [12] was inconclusive: 77 µM [cytotoxic, partial curve, poor fit]. For the same molecule, the Potency [8] was “inactive” and the Potency [13] was “inactive”.
For `C=C(Nc1ccc(OCC)cc1)Nc1ccc(OCC)cc1`, the Potency [4] was inconclusive: 21.1 µM [cytotoxic, partial curve] and inconclusive: 13.3 µM [cytotoxic, partial curve], the Potency [12] was inconclusive: 33.5 µM [cytotoxic, single point] and the Potency [14] was “inactive”. The Potency [7] was “inactive” and the Potency [10] was inconclusive: 25.1 µM [activator, single point].
In the case of `Cc1nc([N+](=O)[O-])cn1-c1ccc([N+](=O)[O-])cc1`, the Potency [5] is reported as “inactive”, the Potency [7] is reported as “inactive” and the Potency [15] is reported as “inactive”.
With `O=C(O)CCn1c2c(c3ccccc31)C[C@H](NS(=O)(=O)c1ccc(F)cc1)CC2` the Potency [16] was inconclusive: 0.0841 µM [cytotoxic, full curve].
In the case of `CC(C)Cn1cnc2c1c(=O)n(C)c(=O)n2C`, the activity change, negative = inhibition [2, 18] is reported as inconclusive: -15.2%, the Potency [5] is reported as “inactive” and the Potency [8] is reported as “inactive”. For the same molecule, the Potency [9] was “inactive”.
For `CCCCC/C=C\CCC=O`, the Potency [2, 18] was “inactive”, the Potency [3] was “inactive” and the Potency [12] was “inactive”. The Potency [5] was “inactive”, the Potency [17] was “inactive” and the Potency [7] was “inactive”.
For `Cc1cccc(C)c1NC(=O)c1ccccc1C(=O)O`, the Potency [1] was “inactive”, the Potency [7] was inconclusive: 21.1 µM [activator, partial curve, poor fit] and the Potency [9] was “inactive”.
With `CC(O)[C@H]1CC[C@H]2[C@@H]3CC[C@@H]4C[C@@H](O)CC[C@]4(C)[C@H]3CC[C@]12C` (some centres undefined) the Potency [3] was inconclusive: 18.8 µM [cytotoxic, partial curve], the Potency [4] was inconclusive: 2.37 µM [cytotoxic, full curve] and the Potency [12] was inconclusive: 11.9 µM [cytotoxic, partial curve]. The Potency [14] was “inactive”, the Potency [13] was “inactive” and the Potency [10] was inconclusive: 10 µM [activator, partial curve].
In the case of `CC(=O)OC(C)=O`, the Potency [1] is reported as inconclusive: 0.248 µM [falling, single point], the ratio activity, negative = MMP loss [11] is reported as inconclusive: 12.4% [at 95.3 µM] and the activity change, negative = inhibition [2, 18] is reported as inconclusive: 16.2% [activator] [at 78.9 µM].
With `C=C[C@@H](C)CCC=C(C)C` the Potency [1] was “inactive”, the Potency [2, 18] was “inactive” and the Potency [5] was “inactive”.
For `O=C(O)Cc1csc(-c2ccc(Cl)cc2)n1`, the Potency [1] was inconclusive: 26.6 µM [rising, partial curve, poor fit], the Potency [11] was “inactive” and the Potency [14] was inconclusive: 0.19 µM [rising, full curve, poor fit]. For the same molecule, the Potency [13] was “inactive” and the activation [15] was inconclusive: 7.21%.
In the case of `N=C(N)c1ccccc1`, the Potency [11] is reported as inconclusive: 2.71 µM [inhibitor, single point] and the Potency [4] is reported as inconclusive: 10.8 µM [cytotoxic, partial curve, poor fit].
In the case of `N#Cc1cscn1`, the Potency [13] is reported as inconclusive: 54.9 µM [rising, single point] and the Potency [15] is reported as active: 54.9 µM.
With `O=C(Nc1cccc(C2=NCCN2)c1)Nc1cccc(C2=NCCN2)c1` the activity change, negative = inhibition [2, 18] was inconclusive: -1.76%, the Potency [3] was active: 11.9 µM and the activity, negative = cytotoxicity [4] was inconclusive: -39.9% [cytotoxic]. The Potency [8] was “inactive” and the activation [7] was inconclusive: 23.8% [phenotype inactive].
With `CCOC(=O)c1cccnc1` the Potency [2, 18] was “inactive”, the Potency [12] was “inactive” and the Potency [13] was “inactive”.
